For orientation: % Inhibition means the relative decrease from the control value, in per cent.

Structures are written as SMILES. The campaign covered roughly 150,000 compounds. About 540 (0.36%) showed an effect of 50% or more. This is one part of the list.

This assay has as its system Plasmodium falciparum. Briefly: Primary screen in NF54 nanoGlo assay, in single point, at 2uM, 72h; a lower Z score goes with more inhibition. To be noted: timepoint 72 hour. In kind it is functional, Erythrocyte.
Take `c1cc(CNc2ccc(-c3ccncc3)cn2)nc(N2CCOCC2)c1`: the “% Inhibition” value is reported as -11% and the Z score stood at 1.6.
Take `CC(C)[C@H]1NC(=O)[C@H](C)N(C)C(=O)[C@H]([C@@H](C)O)NC(=O)COc2cccc(c2)CC2(CCNCC2)CNC1=O`: the “% Inhibition” value is on record as -1% and the Z score was found to be 0.15.
Turning to `CN1CCc2cc(CNc3nc(C(F)F)nc4ccccc34)ccc21`, the “% Inhibition” value is on record as -11% and the Z score was 1.98.
With `CC1(C)C2CCC1(C)C(OCC(O)CNC1CCCC1)C2` (stereo unspecified), the “% Inhibition” value was found to be 13% and the Z score is listed as -1.96.
On the same counts, the results for `CN(C)c1ncccc1O[C@H]1CCN(c2ncnc3[nH]ccc23)C1` are 1% and -0.12.
The matching figures for `COCC(C)=CCn1cnc2ccc(S(C)(=O)=O)cc2c1=O`: -3% and 0.52.
On the same counts, the results for `Cc1noc(C)c1C(=O)Nc1ccn(C(C)(C)C(=O)O)n1` are -13% and 2.31.
Take `C[C@H](NCc1ccnc(N)c1)c1ccc(-c2cccc(C#N)c2)cc1`: the “% Inhibition” value is on record as -3% and the Z score turned out to be 0.45.
The matching figures for `CN(C)C1CCN(c2ccc(Nc3ncnc4c(F)cccc34)cc2)CC1`: -15% and 2.21.
As to `NC(=O)c1cncc(N2CCC(N3CCN(CCO)CC3)CC2)n1`, the “% Inhibition” value is reported as -1% and the Z score is 0.13.
On the same counts, the results for `C[C@H]1COCCN1CCN1CCC(=O)N(C)c2cc(F)ccc21` are 2% and -0.52.
`Cc1cccc(OC2CCN([C@H]3CCCN(Cc4ccccc4)C3)CC2)n1`: the “% Inhibition” value was 6% and the Z score is recorded as -1.22.
The matching figures for `CCOC(=O)N1CCC(Nc2nc(C)ncc2-c2nc(-c3ccsc3)no2)CC1`: -9% and 1.36.
On the same counts, the results for `Cc1c(CN2CCC(O)(Cn3ccnc3)CC2)[nH]c2c(Cl)cccc12` are 95% and -16.38.
The matching figures for `C[C@](O)(CNc1ccc2[nH]ccc2c1)c1cccc(C(F)(F)F)c1`: 15% and -2.61.
Consider `CN1CCN(c2ncnc3ccc(-c4ccc5c(c4)OCO5)cc23)CC1`, for which the “% Inhibition” value is -9% and the Z score is reported as 1.51.
The matching figures for `CC1(C)Cc2cccc(C(=O)N3CCC(n4cc(C(=O)O)cn4)CC3)c2O1`: 7% and -1.41.
On the same counts, the results for `COCCn1cnc(-c2ccccc2)c1-c1cccc(OCCCN(C)C)c1` are -1% and 0.28.
As to `Cc1ccnc(NCc2cccc(N3CCOCC3)n2)c1Cl`, the “% Inhibition” value was -5% and the Z score was 1.05.
The matching figures for `CCc1cc(N2CCC[C@H](Nc3nccc(Oc4ccccc4)n3)C2)ncn1`: -7% and 1.08.
Take `Cc1cn(-c2cncc(-c3cccc(OCCN(C)C)c3)c2)cn1`: the “% Inhibition” value was found to be 15% and the Z score is -2.5.
Turning to `C(=Cc1ccccc1)COc1ccc2ncccc2c1`, the “% Inhibition” value was 4% and the Z score is given as -0.8.
The matching figures for `CC1(C)C[C@H](NC2CCN(CC(F)F)CC2)c2ccccc2O1`: -2% and 0.46.
On the same counts, the results for `COc1ccc(Cn2nc3ccc(-c4ccc(Cl)cc4)nn3c2=O)cc1F` are -5% and 0.82.
On the same counts, the results for `CN(C)CC#CCNC(=O)Nc1cccc(OCC(=O)N(C)C)c1` are -9% and 1.35.
With `CC[C@@](CO)(NCc1cc(OC)c(OC)cc1OC)c1ccccc1`, the “% Inhibition” value is recorded as -8% and the Z score was found to be 1.48.
In the case of `OCCC#Cc1ccc(-c2c(-c3ccccc3)ncn2CCn2ccnc2)cc1`, the “% Inhibition” value is on record as -3% and the Z score is listed as 0.55.
Turning to `CC(C)n1cc2cc(NC(=O)c3cc4ccc(OC(F)(F)F)cc4[nH]3)ccc2n1`, the “% Inhibition” value came out at 6% and the Z score was -1.35.
As to `CCOC1(C)CCN(C(=O)[C@@H](C)Cc2cnc3ccccc3n2)CC1`, the “% Inhibition” value was -5% and the Z score was 1.
With `O=C(Cc1c[nH]c2ncccc12)Nc1cc(C(F)(F)F)ccn1`, the “% Inhibition” value is on record as -10% and the Z score is 1.76.
The matching figures for `CCCCC(=O)N(C)[C@H](c1ccccc1)c1c[nH]c2ccccc12`: 6% and -0.93.
On the same counts, the results for `Cc1ccnc(N2CCN(CCCN3CCCCC3)CC2)c1` are -6% and 1.24.
On the same counts, the results for `COC(C)C(=O)N1CCCC(C(=O)O)C1C` (stereo unspecified) are 7% and -1.42.
Take `O=C(c1ccccc1CC1CCNCC1)N1CCN(C2CCOCC2)CC1`: the “% Inhibition” value is reported as -6% and the Z score is listed as 1.
The matching figures for `O=C(Cn1cc(OCc2cccc(Cl)c2)c(=O)cc1CO)Nc1ccc2[nH]ccc2c1`: -9% and 1.77.
The matching figures for `CN1CCC(N2CCC[C@H](NC(=O)CN(C)Cc3cccnc3)C2)CC1`: -9% and 1.47.
The matching figures for `Oc1cccc(CN2CCN(C3CCN(c4ccc5c(c4)CCC5)CC3)CC2)c1`: -19% and 4.11.
Consider `Cc1cccc2c(NCCCCN3CCN(CCO)CC3)ncnc12`, for which the “% Inhibition” value is reported as -12% and the Z score turned out to be 1.79.
The matching figures for `O=C(c1ccc(C[C@H]2CCCNC2)cc1)N1CCC(Nc2ccccn2)CC1`: -9% and 1.84.
For `c1ccc(NCCCNc2nnc(-c3ccon3)s2)nc1`, the “% Inhibition” value is recorded as -12% and the Z score is listed as 2.1.
For `OCC12CCCNC1CCN(Cc1cc(O)c3cc(F)ccc3n1)C2` (stereo unspecified), the “% Inhibition” value is listed as -12% and the Z score is 1.87.
The matching figures for `C[C@@H](Cc1ccc2oc3ccccc3c2c1)NC(=O)c1ccc(N(C)C)cc1`: 0% and 0.06.
The matching figures for `CCC(NC(=O)[C@H](CC(=O)OC)NC(C)=O)(C1CC1)C1CC1`: -11% and 1.71.
Take `CC(C)(C)C1CN(C(=O)Cn2ccc(=O)[nH]c2=O)CC(c2ccccc2)O1` (stereo unspecified): the “% Inhibition” value is -14% and the Z score is 2.38.
The matching figures for `COCCN1CCC(Nc2nc3cccc(F)c3s2)CC1`: 1% and -0.22.
The matching figures for `C[C@H](NC(=O)c1ccnc(N2CCN(C)CC2)c1)c1ncc(-c2ccccc2)o1`: 0% and 0.03.
For the compound `O=C(NC1COCCC1Oc1ccc(CO)cc1)c1ccnc2ccccc12` (stereo unspecified), the “% Inhibition” value is on record as -7% and the Z score is listed as 1.01.
`FC(F)(F)c1cccnc1NCCNCc1csc(-c2ccco2)n1`: the “% Inhibition” value turned out to be 11% and the Z score is on record as -1.98.
As for `c1cc(CN2CCC(NCCOC3CCCCCC3)CC2)ccn1`, the “% Inhibition” value is 1% and the Z score is -0.21.
On the same counts, the results for `CN1C[C@@H]2CN(C[C@H]3CCCCN3C(=O)OC(C)(C)C)C[C@@H]2C1` are -8% and 1.82.
Take `Cc1nn(C)c(C(=O)N2CC(O)C(N3CCCC3)C2)c1Cl` (stereo unspecified): the “% Inhibition” value is reported as -7% and the Z score is recorded as 1.06.
On the same counts, the results for `CC(=O)N1CCC(NCc2ccc3[nH]c(-c4ccc(F)cc4)c(C)c3c2)CC1` are 3% and -0.65.
In the case of `CN(C)CCN(C)C(=O)c1cccc(-c2cc(C(F)(F)F)n[nH]2)c1`, the “% Inhibition” value was -1% and the Z score was 0.12.
For the compound `O=C(CCC(F)(F)F)N1C2CCC1CC(n1cc(Br)cn1)C2` (stereo unspecified), the “% Inhibition” value was -3% and the Z score is 0.47.
With `O=C(C1CCC1)N1CCC(NC(C2CCNCC2)[C@H]2C[C@H](O)C2)CC1` (stereo partly specified), the “% Inhibition” value amounted to 10% and the Z score is reported as -1.69.
`Cc1cc(N2CCC(NCCc3c[nH]cn3)CC2)nc(-c2ccccc2)n1`: the “% Inhibition” value was 32% and the Z score is reported as -5.53.
The matching figures for `Clc1ccc(Oc2nc3ccccc3o2)c2ncccc12`: 7% and -1.34.
The matching figures for `Nc1nc(NC2CC2)cc(N2CCC(NC(=O)c3ccccc3)C(O)C2)n1` (stereo unspecified): -16% and 2.68.
Regarding `CNc1nc(N[C@H]2C[C@@H](O)[C@@H]2n2cccn2)nc2ccccc12`, the “% Inhibition” value is -1% and the Z score was found to be 0.09.
The matching figures for `CC(C)c1cnn2c(NCc3ccccc3-n3cccn3)cc(O[C@H]3CCCNC3)nc12`: 1% and -0.13.
On the same counts, the results for `O=C(NC[C@H]1CCCN(c2ncnc3[nH]ccc23)C1)c1ccc2c(c1)CCCO2` are -6% and 0.95.
Consider `O=S(=O)(c1cccc2cnccc12)N1CCCN(c2ccc3nnc(-c4ccccc4)n3n2)CC1`, for which the “% Inhibition” value was -10% and the Z score came out at 2.13.
The matching figures for `CCNS(=O)(=O)c1ccc2c(c1)N(C(=O)c1cnn(C(C)C)c1)CC2`: -5% and 0.79.
On to `Cn1nc(-c2ccccc2)cc1C(=O)NCCN1CCN(C[C@H](O)COC(C)(C)C)CC1`, for which the “% Inhibition” value came out at 1% and the Z score is -0.16.
On the same counts, the results for `O=C(c1ccccc1N1CCOCC1)N1CCCn2nc(CO)cc2C1` are 3% and -0.48.
For the compound `CN1CCC(N2CC[C@H](N(C)C(=O)c3nnc4ccccc4c3O)C2)CC1`, the “% Inhibition” value is -11% and the Z score is on record as 2.21.
The matching figures for `c1ccc2c(c1)CCCN2CCNc1nc(-c2ccncc2)nc2c1CNC2`: -11% and 1.61.
On the same counts, the results for `CN(C)C(=O)N1CC[C@H](N(CCN(C)C(=O)c2cccc3[nH]ccc23)C2CCOCC2)C1` are -11% and 1.91.
On the same counts, the results for `CC(=O)N1CCCC(C(=O)N2CCC(NC(=O)OC(C)(C)C)C(C)(C)C2)C1` (stereo unspecified) are -2% and 0.38.
Take `CCCc1cc(C(=O)N2CCC[C@H]2C2CCOCC2)cc(=O)[nH]1`: the “% Inhibition” value is on record as 4% and the Z score is listed as -0.82.
On the same counts, the results for `Cc1ccc2c(C)cc(NC[C@H]3CCCN3C)nc2c1C` are 5% and -1.05.
The matching figures for `Nc1nc2c(c(NCC[C@H]3COc4ccccc4O3)n1)CCNC2`: 3% and -0.6.
The matching figures for `CC[C@H](NC(=O)c1ccc2oc(C)cc2c1)c1nc(C)c[nH]1`: -5% and 0.72.
For the compound `Cc1ccc2ncccc2c1CNC(=O)CN1CCN(c2ncccn2)CC1`, the “% Inhibition” value is given as 2% and the Z score was -0.26.
The matching figures for `Cn1ccnc(N2CCC[C@H](Nc3ncnc4cc(F)c(F)cc34)C2)c1=O`: -9% and 1.61.
Consider `N#Cc1ccc(N2CCC(NCCc3c[nH]cn3)CC2)nc1`, for which the “% Inhibition” value is given as -6% and the Z score is 1.18.
The matching figures for `C[C@@]1(c2ccc(Br)cc2)COC(=O)N1`: -2% and 0.47.
On the same counts, the results for `c1ncn(Cc2ccc(NCc3ccc4[nH]ccc4c3)cc2)n1` are -5% and 0.81.
The matching figures for `COc1ccc(-c2cccc3[nH]ccc23)nn1`: 20% and -4.34.
Consider `CN1C(=O)C(C)(C)COc2ccc(Nc3ncnc4[nH]ccc34)cc21`, for which the “% Inhibition” value is recorded as -3% and the Z score worked out at 0.61.
On the same counts, the results for `CCc1[nH]c2ccc(CNc3ncc(F)c(N4CCOCC4)n3)cc2c1C` are 0% and -0.01.
Take `CC[C@@H](c1nc(C)no1)n1cnc(-c2ccccc2)c1-c1cnn(C(C)C)c1`: the “% Inhibition” value is on record as 6% and the Z score is on record as -0.95.
On the same counts, the results for `Cn1cc(CN2CCC[C@H](COc3ccccc3C(=O)N3CCCCC3)C2)c2ccccc21` are 4% and -0.72.

(Values after ChEMBL document CHEMBL5308541, “MAIP: An Open-Source Tool to Enrich High-Throughput Screening Output and Identify Novel, Druglike Molecules with Antimalarial Activity” (ACS Med Chem Lett, 2023).)
